Experimental data taken from the supplement of paper PMC11417369.
Some of the results follow.

What follows are sequences tested on PfHDP1 homeodomain (GST-tagged) (assay: gcPBM binding intensity (ln(normalized median fluorescence intensity)); higher = stronger DNA binding).
How it was run: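 In this array assay, P. falciparum DNA-binding domains with a GST tag, expressed in E. coli, were applied for 1 h to primer-extended double-stranded 36-bp intergenic genomic probes and negative controls on an Agilent 4 × 180k array. Bound protein was visualised with Alexa488 anti-GST antibody at 488 nm. Binding intensity is the highest Masliner-normalised natural-log median intensity across replicate spots of either probe orientation.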

| Sequence | gcPBM binding intensity (ln) |
| --- | --- |
| AAACATTTATACAAAGCACACAATTTTTAACTTTTA [CACACA_site2627] | 6.3 |
| TTTCAGACAAAAAAAAAAAAAAAAAAGAGGAGAATA [CACACA_negctrl_site254] | 5.94 |
| TATATTAAACAATATACACACATTAATGTAGACATA [CACACA_site8889] | 6.72 |
| TTATAATATATATCTGCATGTTGCTTTGGGGCTTTA [TGCATGCA_site712] | 7.07 |
| GAAAATTCTTAAGGCACACACATATAAGATATATAC [CACACA_site6410] | 6.49 |
| ATAAAATATAAAAACGCACACAATTATAAGGGTGTA [CACACA_site177] | 6.96 |
| ATATATATATATAAAGTGCAAAAATGAAAGTAAGAC [GTGCAC_site9850] | 9.27 |
| GTATATGAATGTTCATGTACATAATAAAATATATAA [XGTACX_site250] | 6.57 |
| AAATTAAAATATAATACACACATAAAAAAAAAATCA [CACACA_site5918] | 6.62 |
| AAAACAAACACATTTACACACATAAATAAATCAATT [CACACA_site4122] | 6.67 |
| TTTATTTTTCCATATGCACACACACCGTATATATAA [CACACA_site8293] | 9.97 |
| ATACATACATACATACGTACATATGTATATATATAT [XGTACX_site8498] | 8.86 |
| TATTCATTCTATAAAACACACAAATATTTTTGTATC [CACACA_site666] | 6.86 |
| ATGTTCTATAAATATGAACACACGACATATTATTTA [CACACA_site1799] | 6.33 |
| ATATATATATATATATGTACATATTATTCTCATTGT [XGTACX_site6259] | 9.4 |
| TATATTTAATTACATGAACACACATTATATATTTTT [CACACA_site8969] | 6.39 |
| TGTAGTATCAATTTTTGTACATAACACATATGTATA [XGTACX_site613] | 6.3 |
| CATATGATATTATTTTGTACTTATTACAAATATGAA [XGTACX_site7929] | 6.33 |
| GAGCATTACACATATACACACATATATATAAACATA [CACACA_site5515] | 7.64 |

| Sequence | gcPBM binding intensity (ln) |
| --- | --- |
| TATAATAATATTTATTGTACGATTAGATTAATTCAT [XGTACX_site612] | 5.99 |
| ATATATATATATATTTGTACATAATATATATATGCA [XGTACX_site1795] | 9.16 |
| AAAAAAAAATAGAAATGTACAAATTGTAATAATTCC [XGTACX_site6182] | 6.35 |
| CAATTAAACAATTAAACATGCAAAATGATATAATAA [TGCATGCA_site240] | 6.33 |
| AAACAATTTAGACATACACACAAAAATAATATTATA [CACACA_site384] | 6.78 |
| ATTAAAAAAAAGCTCATCGAAATGTCTTATATAAAT [CACACA_negctrl_site912] | 6.59 |
| ATATATATATATATATGTACATATTGTATTATTCAC [XGTACX_site6511] | 9.47 |
| CACGAAAATTTGTAGAGTACATATATAATTAATATA [XGTACX_site3808] | 6.63 |
| AAATGAATTTAACAATGTACACATATATTATAAATA [XGTACX_site1449] | 6.2 |
| TACATAATAATAAGGCGTACATAAAAATTAAAAATT [XGTACX_site8769] | 6.68 |
| AAAACGATTTTTTGCACACACATAATAAGCAGAACA [CACACA_site3871] | 10.4 |
| ATATATATATGTATATGTACTCATTCTTCTGTGTTT [XGTACX_site5014] | 8.59 |
| ATATACATTCTATATACATGCATACTTCATTTTGTG [TGCATGCA_site966] | 6.79 |
| AATAATCATGATCATAGTACGTATGAATACAAAAAA [XGTACX_site265] | 6.86 |
| TATCTACTTAAATAAAATAAAAATAATAAATAAAAA [TGCATGCA_negctrl_site312] | 6.46 |
| ATAAAACAAAGACACACACACATACACAAAAAAAAA [CACACA_site7752] | 6.83 |
| TTTTATTTATTCCTACTTTTTTATTTATTTATTTAA [XGTACX_negctrl_site415] | 6.27 |
| ACATTATGTCATAAATGTACACATACATATACATAC [XGTACX_site8998] | 6.43 |
| CGTATGTATATATATATACACACTTCTGTGATACGA [CACACA_site1949] | 6.65 |

| Sequence | gcPBM binding intensity (ln) |
| --- | --- |
| ATGTATAATATTTTCACACACAAGAAAAAAGAAAAG [CACACA_site3591] | 6.78 |
| ATTTATATATATTTATGTACGTATTAATTTTTTTTT [XGTACX_site3877] | 6.62 |
| AATGAATCCTTATATACACACATTATTATAGTATAG [CACACA_site7454] | 6.53 |
| AAAGAAAATTAAAAAGAACACACAAATATATATATA [CACACA_site9196] | 8.6 |
| ATTATACCGTATTTTGCATGTAGTATTTTCATTTTA [TGCATGCA_site1021] | 6.8 |
| ATTAATTATGTATTTCAACAAAGAAGTGTTATATAT [GTGCAC_negctrl_site215] | 6.4 |
| TCTTTATCCTTTCTCTTTTTATTAATTATAATATTC [TGCATGCA_negctrl_site584] | 7.15 |
| ATTATTTGTAATATAACACACACAAAAAAAGACTCG [CACACA_site8487] | 6.66 |
| TATCATTTATATATGTGTACTTATTTATTTATTTAT [XGTACX_site7961] | 6.66 |
| ATATATACCTAAGACACACACATATATATATATATA [CACACA_site764] | 9.32 |
| AAATGTACAGGACGCACACACATATATATATATATA [CACACA_site3674] | 9.42 |
| AAGGAAAATATTAACTGTACATATAAAATATATATA [XGTACX_site5310] | 6.33 |
| ACAATATTATTATTTAACCATACACAATTATATGTC [XGTACX_negctrl_site378] | 6.51 |
| GTAATATTAATATAATGTACAAAATGAAACATATAT [XGTACX_site6219] | 6.42 |
| CAGTTTAATTTACATAGTACATAATATTTTAATTTT [XGTACX_site1793] | 6.13 |
| AGTATACTCAAACACACACACACAAAAAAAAAAAAA [CACACA_site4398] | 6.59 |
| TAAGAAATAAATAGTACACACATAGACACCCACCGA [CACACA_site1516] | 7.1 |
| TAGATACATAAACACACACACACATACATATATACA [CACACA_site9139] | 6.83 |
